The campaign covered roughly 3,200 compounds. About 110 (3.4%) showed an effect of 50% or more. Some of the results follow.

In the assay the test system is T1, V. cholerae SAD30.
T1 construct: SAD30
Also noted: species or system S. aureus MSSA476 (TSB) or V. cholerae SAD30 (LB); 384-well bacterial growth screen at 25 uM, OD600 relative to DMSO control. The conditions noted are these: relative growth, OD600, LB; 25 µM; inhibitor.
Regarding `O=C(CCl)N(CCCO)C1CCCc2ccccc21` (centres unmarked) [7-J14, 2-chloro-N-(3-hydroxypropyl)-N-(1,2,3,4-tetrahydronaphthalen-1-yl)acetamide], the “% of control remaining” value came out at 77.1849%.
The result for `CC(Cl)C(=O)N1CCN(S(=O)(=O)c2ccccc2)CC1` (centres unmarked) [6-B12, 1-[4-(benzenesulfonyl)piperazin-1-yl]-2-chloropropan-1-one] reads 88.4254%.
To `COc1ccc(C2=NN(C(=O)CCl)C(c3cccc(F)c3)C2)cc1` (centres unmarked) [6-P04, 2-chloro-1-[5-(3-fluorophenyl)-3-(4-methoxyphenyl)-4,5-dihydro-1H-pyrazol-1-yl]ethan-1-one] belongs 96.7675%.
For `Cc1cc(C)n(CC2CCN(C(=O)C(C)Cl)CC2)n1` (centres unmarked) [7-P17, 2-chloro-1-{4-[(3,5-dimethyl-1H-pyrazol-1-yl)methyl]piperidin-1-yl}propan-1-one], the “% of control remaining” value was 90.2693%.
With `CCN(Cc1ccccc1)C(=O)CCl` [6-O21, N-benzyl-2-chloro-N-ethylacetamide], the “% of control remaining” value is recorded as 98.8909%.
As to `C=CCNC(=O)C(C#N)=Cc1cccc(C(F)(F)F)c1` [8-L09, 2-cyano-N-(prop-2-en-1-yl)-3-[3-(trifluoromethyl)phenyl]prop-2-enamide], the “% of control remaining” value was determined as 71.8559%.
Take `C=CC(=O)N(C)CC(=O)N1CCCCC1c1nc(C)c(C)s1` (centres unmarked) [2-E20, N-{2-[2-(4,5-dimethyl-1,3-thiazol-2-yl)piperidin-1-yl]-2-oxoethyl}-N-methylprop-2-enamide]: the “% of control remaining” value was 98.2245%.
Regarding `COc1ccc(C=C(C#N)C(=O)NCc2ccccc2)cc1` [8-K19, N-benzyl-2-cyano-3-(4-methoxyphenyl)prop-2-enamide], the “% of control remaining” value came out at 71.0401%.
The result for `C=CC(=O)Nc1ccc(C(=O)NC2CCN(S(C)(=O)=O)CC2)cc1` [2-M21, N-(1-methanesulfonylpiperidin-4-yl)-4-(prop-2-enamido)benzamide] reads 87.88%; that for `C=CC(=O)Nc1ccc(C(=O)N2CCC(C)(C)S(=O)(=O)CC2)cc1` [3-E04, N-[4-(7,7-dimethyl-1,1-dioxo-1lambda6,4-thiazepane-4-carbonyl)phenyl]prop-2-enamide], 101.97%.
On to `CSc1cc(C(=O)CCl)ccc1NC(C)=O` [10-H08, N-[4-(2-chloroacetyl)-2-(methylsulfanyl)phenyl]acetamide], for which the “% of control remaining” value worked out at 25.2484%.
In the case of `C=CC(=O)N1CCC(C(=O)NCc2nnc(C(C)C)n2C)CC1` [3-C16, N-{[4-methyl-5-(propan-2-yl)-4H-1,2,4-triazol-3-yl]methyl}-1-(prop-2-enoyl)piperidine-4-carboxamide], the “% of control remaining” value stood at 97.3828%.
The result for `N#CC(=Cc1ccc(Cl)cc1)C(=O)Nc1nccs1` [8-C11, 3-(4-chlorophenyl)-2-cyano-N-(1,3-thiazol-2-yl)prop-2-enamide] reads 70.4963%; that for `Cc1cc(C)cc(-c2cc(NC(=O)CCl)n(-c3ccccc3)n2)c1` [4-K04, 2-chloro-N-[3-(3,5-dimethylphenyl)-1-phenyl-1H-pyrazol-5-yl]acetamide], 106.103%.
To `CC1CC1c1ccc(C=C(C#N)C(=O)Nc2ccc(C(=O)O)cc2)o1` (centres unmarked) [9-G16, 4-{2-cyano-3-[5-(2-methylcyclopropyl)furan-2-yl]prop-2-enamido}benzoic acid] belongs 84.5003%; to `O=C(CCl)c1ccc(CC(=O)N2CCOCC2)s1` [10-H06, 2-chloro-1-{5-[2-(morpholin-4-yl)-2-oxoethyl]thiophen-2-yl}ethan-1-one], 101.305%; to `C=CC(=O)N1CCC(C(=O)NCCC2(O)CCCOC2)CC1` (centres unmarked) [2-B04, N-[2-(3-hydroxyoxan-3-yl)ethyl]-1-(prop-2-enoyl)piperidine-4-carboxamide], 101.004%.
To `O=C(CCl)N1CCC1c1cccc(F)c1` (centres unmarked) [5-K10, 2-chloro-1-[2-(3-fluorophenyl)azetidin-1-yl]ethan-1-one] belongs 86.5819%.
Take `CC1CCc2c(sc(NC(=O)CCl)c2C(=O)OC(C)C)C1` (centres unmarked) [4-D07, propan-2-yl 2-(2-chloroacetamido)-6-methyl-4,5,6,7-tetrahydro-1-benzothiophene-3-carboxylate]: the “% of control remaining” value is recorded as 100.41%.
In the case of `Cc1c(C=C(C#N)C(=O)Nc2nccs2)cc(C#N)n1C` [8-B18, 2-cyano-3-(5-cyano-1,2-dimethyl-1H-pyrrol-3-yl)-N-(1,3-thiazol-2-yl)prop-2-enamide], the “% of control remaining” value was found to be 74.0313%.
The result for `C=CC(=O)NCCC(=O)N1CCc2cc(C)c([N+](=O)[O-])cc21` [3-F08, N-[3-(5-methyl-6-nitro-2,3-dihydro-1H-indol-1-yl)-3-oxopropyl]prop-2-enamide] reads 95.7949%; that for `O=C(CCl)NCc1ccccc1C(F)(F)F` [6-K10, 2-chloro-N-{[2-(trifluoromethyl)phenyl]methyl}acetamide], 92.0656%; that for `O=C(CCl)N1c2ccc(F)cc2NC(=O)C12CCC2` [5-K09, 1'-(2-chloroacetyl)-6'-fluoro-3',4'-dihydro-1'H-spiro[cyclobutane-1,2'-quinoxalin]-3'-one], 94.8198%.
To `C=CC(=O)NCCc1ccn(-c2ccc(F)cc2)n1` [2-P03, N-{2-[1-(4-fluorophenyl)-1H-pyrazol-3-yl]ethyl}prop-2-enamide] belongs 113.818%; to `COC(=O)c1c(-c2ccccc2Cl)csc1NC(=O)CCl` [4-F07, methyl 2-(2-chloroacetamido)-4-(2-chlorophenyl)thiophene-3-carboxylate], 96.9592%; to `CC(Cl)C(=O)N(Cc1ccccc1)Cc1ccccc1` (centres unmarked) [5-K19, N,N-dibenzyl-2-chloropropanamide], 59.5146%.
To `CC(Cl)C(=O)NCCCc1c[nH]c2ccc(F)cc12` (centres unmarked) [7-J09, 2-chloro-N-[3-(5-fluoro-1H-indol-3-yl)propyl]propanamide] belongs 64.1004%; to `N#CC(=Cc1ccccc1)C(=O)Nc1nncs1` [8-K09, 2-cyano-3-phenyl-N-(1,3,4-thiadiazol-2-yl)prop-2-enamide], 72.2638%; to `O=C(CCl)NCC1(c2ccccc2)CCC1` [4-O19, 2-chloro-N-[(1-phenylcyclobutyl)methyl]acetamide], 104.55%.
Turning to `O=C(CCl)N(CC1CCCO1)C1CCS(=O)(=O)C1` (centres unmarked) [5-N16, 2-chloro-N-(1,1-dioxo-1lambda6-thiolan-3-yl)-N-[(oxolan-2-yl)methyl]acetamide], the “% of control remaining” value was 100.536%.
The result for `C=CC(=O)NCc1cn(C)nc1-c1ccccn1` [2-H03, N-{[1-methyl-3-(pyridin-2-yl)-1H-pyrazol-4-yl]methyl}prop-2-enamide] reads 111.039%.
The result for `COCCNC(=O)C(C#N)=Cc1cccc(O)c1` [9-H08, 2-cyano-3-(3-hydroxyphenyl)-N-(2-methoxyethyl)prop-2-enamide] reads 89.259%; that for `C=CC(=O)NCCNC(=O)C1CC12CCSCC2` (centres unmarked) [2-O06, N-[2-({6-thiaspiro[2.5]octan-1-yl}formamido)ethyl]prop-2-enamide], 92.0486%; that for `C=CC(=O)Nc1ccnn1C(C)C` [2-O07, N-[1-(propan-2-yl)-1H-pyrazol-5-yl]prop-2-enamide], 90.9679%.
Regarding `C=CC(=O)N1CCC=C(c2cn(C(C)C)nn2)CC1` [3-D19, 1-{4-[1-(propan-2-yl)-1H-1,2,3-triazol-4-yl]-2,3,6,7-tetrahydro-1H-azepin-1-yl}prop-2-en-1-one], the “% of control remaining” value came out at 102.5%.
The result for `COc1cc(C=C(C#N)C(=O)NC2CCCCC2)cc(Cl)c1O` [8-H21, 3-(3-chloro-4-hydroxy-5-methoxyphenyl)-2-cyano-N-cyclohexylprop-2-enamide] reads 80.5574%; that for `CC1CCCN1C(=O)CNC(=O)CCl` (centres unmarked) [7-L12, 2-chloro-N-[2-(2-methylpyrrolidin-1-yl)-2-oxoethyl]acetamide], 80.2247%.
For `C=CC(=O)N1CCC(C(=O)Nc2ccccc2NS(C)(=O)=O)CC1` [3-C06, N-(2-methanesulfonamidophenyl)-1-(prop-2-enoyl)piperidine-4-carboxamide], the “% of control remaining” value turned out to be 107.793%.
To `CC(Cl)C(=O)Nc1c(Cl)cccc1Cl` (centres unmarked) [4-B16, 2-chloro-N-(2,6-dichlorophenyl)propanamide] belongs 102.653%.
Consider `C=CC(=O)NCCc1nc(-c2ccccc2)nn1C` [2-M12, N-[2-(1-methyl-3-phenyl-1H-1,2,4-triazol-5-yl)ethyl]prop-2-enamide], for which the “% of control remaining” value is reported as 85.4096%.
For `O=C(CCl)NC(c1ccccc1)c1ccc(Cl)cc1` (centres unmarked) [4-G04, 2-chloro-N-[(4-chlorophenyl)(phenyl)methyl]acetamide], the “% of control remaining” value is 113.004%.
To `N#CC(=Cc1cccs1)C(=O)Nc1nccs1` [8-G13, 2-cyano-N-(1,3-thiazol-2-yl)-3-(thiophen-2-yl)prop-2-enamide] belongs 71.7199%; to `C=CC(=O)N(C)C1CS(=O)(=O)C1` [1-E03, N-(1,1-dioxo-1lambda6-thietan-3-yl)-N-methylprop-2-enamide], 104.185%.
To `Cc1ccc(NC(=O)CCl)cc1[N+](=O)[O-]` [4-M13, 2-chloro-N-(4-methyl-3-nitrophenyl)acetamide] belongs 93.6813%.
